Assay results as given in publication PMC4336329 (PLoS ONE, 2015).
Among all 310,000 compounds or so, about 2,200 (0.71%) showed an effect of 50% or more. The effect is printed as a negative number. Some of the results follow.

What follows are molecules tested against human ether-à-go-go-related gene (hERG) potassium channel (human, UniProt Q12809) (assay: primary screen, population patch clamp on CHO cells stably expressing hERG).
human ether-à-go-go-related gene (hERG) potassium channel, sequence (Q12809 whole entry, looked up): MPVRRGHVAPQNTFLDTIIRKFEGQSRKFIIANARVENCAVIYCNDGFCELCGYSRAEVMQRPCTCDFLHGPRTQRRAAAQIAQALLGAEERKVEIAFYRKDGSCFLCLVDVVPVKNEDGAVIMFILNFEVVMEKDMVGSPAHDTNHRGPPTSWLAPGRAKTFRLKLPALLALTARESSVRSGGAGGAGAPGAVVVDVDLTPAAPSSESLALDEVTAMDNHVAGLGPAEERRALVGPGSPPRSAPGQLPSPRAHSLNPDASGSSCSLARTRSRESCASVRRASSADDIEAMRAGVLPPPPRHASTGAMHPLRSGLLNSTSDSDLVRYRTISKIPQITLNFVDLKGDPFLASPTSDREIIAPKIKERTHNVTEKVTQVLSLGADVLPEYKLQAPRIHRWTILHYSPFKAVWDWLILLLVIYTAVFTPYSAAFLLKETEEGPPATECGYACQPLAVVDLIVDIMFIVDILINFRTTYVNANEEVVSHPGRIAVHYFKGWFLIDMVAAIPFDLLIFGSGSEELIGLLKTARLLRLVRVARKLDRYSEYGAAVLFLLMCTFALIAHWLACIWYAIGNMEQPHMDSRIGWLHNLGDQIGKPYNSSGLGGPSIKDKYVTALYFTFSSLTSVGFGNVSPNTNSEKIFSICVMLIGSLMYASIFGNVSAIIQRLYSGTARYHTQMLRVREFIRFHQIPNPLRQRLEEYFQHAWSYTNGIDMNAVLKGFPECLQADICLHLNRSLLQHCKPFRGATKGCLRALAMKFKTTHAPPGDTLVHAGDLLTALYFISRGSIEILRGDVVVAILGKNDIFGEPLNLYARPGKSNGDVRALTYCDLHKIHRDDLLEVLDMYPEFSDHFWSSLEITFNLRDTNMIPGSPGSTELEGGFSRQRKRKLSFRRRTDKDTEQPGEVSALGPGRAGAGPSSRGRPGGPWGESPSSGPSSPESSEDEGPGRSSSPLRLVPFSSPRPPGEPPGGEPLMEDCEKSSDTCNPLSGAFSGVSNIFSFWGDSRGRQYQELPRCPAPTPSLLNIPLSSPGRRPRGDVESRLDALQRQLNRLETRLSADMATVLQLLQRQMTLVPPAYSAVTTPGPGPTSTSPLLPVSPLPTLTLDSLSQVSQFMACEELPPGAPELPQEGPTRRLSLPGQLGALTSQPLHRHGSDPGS

Row | SMILES | hERG current change (%, negative = inhibition) at 1uM [%]
1 | COc1ccc(N2C(=O)CC(Sc3nccc(C)n3)C2=O)cc1 (stereo not shown) | 8.52
2 | Cc1sc2ncnc(SCC(=O)NCC3CCCO3)c2c1C (stereo not shown) | 7.17
3 | CCCc1nc(SCC(=O)Nc2nccs2)c2ccccc2n1 | 12.9
4 | Clc1ccc(OCCN2CCOCC2)cc1Cl | 13.4
5 | OCC[n+]1ccc(/C=C/c2c[nH]c3ccccc23)cc1 | 5.84
6 | CCOc1ccc(NC(=O)CCSc2nc3c(c(CC)c2C#N)C(=O)CC(C)(C)C3)cc1 | 7.21
7 | O=C(O)/C(=C\c1cccs1)c1ccccc1 | 5.14
8 | CCc1noc(C)c1C(=O)Nc1cc(Cl)ccc1-n1cncn1 | 1.58
9 | O=S(=O)(/C=C/c1ccccc1)N1CCN(c2nc(-c3ccccc3)nc3ccccc23)CC1 | 11.4
10 | C/C=C(\C)CN1CCC(Oc2cccc(C(=O)NCc3ccccn3)c2)CC1 | 7.58
11 | COCCNC(=O)c1cc(-c2ccccc2)nn1CC1CC(c2cccnc2)=NO1 (stereo not shown) | 19.3
12 | CCN(C(=O)C1CCCO1)c1ccccc1 (stereo not shown) | 15.1
13 | N=C1/C(=C/c2ccc(OCc3ccccc3F)cc2)C(=O)N=C2SC(CC(=O)N3CCOCC3)=NN12 | 12.2
14 | COc1ccc(C2=NCCn3nc4ccccc4c32)cc1 | 7.48
15 | CCCCOC(=O)c1ccc(NC(=O)COC(=O)C2CSC3(C)CCC(=O)N23)cc1 (stereo not shown) | 15.2
16 | CS(=O)(=O)N1CCN(S(=O)(=O)c2ccccc2[N+](=O)[O-])CC1 | 16.2
17 | COc1ccccc1/C=C/C(=O)N1CCN(S(=O)(=O)c2cc(C)ccc2C)CC1 | 13.1
18 | Cc1ccc(S(=O)(=O)N2CCC(C(=O)NNC(=O)c3cccnc3)CC2)cc1 | 3.13
19 | COc1ccc(NS(=O)(=O)c2ccc3c(c2)NC(=O)C(C)S3)cc1 (stereo not shown) | 13
20 | C=CCN1C(=O)/C(=C\c2ccco2)C(C(=O)OC)=C1C | 3.12
21 | Cc1ccc(-n2ncc3c(=O)n(CC(=O)N(C)C)cnc32)cc1 | 9.92
22 | Cc1cc(F)ccc1Oc1cc(NN2CCCCC2)c([N+](=O)[O-])cc1[N+](=O)[O-] | 9.35

Row | SMILES | hERG current change (%, negative = inhibition) at 1uM [%]
23 | S=c1[nH]nc(C2CCCCC2)n1/N=C/c1cccs1 | 4.69
24 | CCOC(=O)[C@H]1[C@H]2COc3ccc(OC)cc3[C@@H]2N2C(=O)[C@H](C)NC(=O)[C@@]12C | 12.7
25 | Cc1cc(C)c(C)c(S(=O)(=O)N2CCC(C(=O)Nc3ccncc3)CC2)c1C | 3.76
26 | O=C(O)c1ccc(C(=O)Nc2cccc(NC(=O)C3CCCO3)c2)cc1 (stereo not shown) | -0.421
27 | Cc1ccnc(N2C(=O)c3ccccc3C2O)c1 (stereo not shown) | 8.24
28 | CCCN1C(=O)c2ccccc2NC1c1cc(OC)c(OC)c(OC)c1 (stereo not shown) | 0.782
29 | CC(=O)Nc1ccc(C(=O)NNC(=O)CCc2ccccc2)cc1 | 18
30 | COc1ccc2oc(C(=O)NCc3ccccc3CN3CCCC3)c(C)c2c1 | -27.2
31 | COc1ccc(CN2C(=O)NC(=O)/C(=C\c3cccc(OC)c3OC)C2=O)cc1 | 11.1
32 | O=C1c2ccccc2C(=O)N1Cc1ccco1 | 8.55
33 | COc1ccc(-c2oc3c(CC=C(C)C)c(O[C@@H]4O[C@H](CO)[C@@H](O)[C@H](O)[C@H]4O)cc(O)c3c(=O)c2O[C@@H]2O[C@@H](C)[C@H](O)[C@@H](O)[C@H]2O)cc1 | 0.935
34 | CCN(CC)CCNC(=O)c1cc2c(=O)n(C)c3ccccc3c2s1 | 10.8
35 | CC(=O)Nc1ccc(S(=O)(=O)N2CCC(C(=O)N[C@@H](Cc3ccccc3)C(=O)O)CC2)cc1 | 10.1
36 | CCOc1ccc(S(=O)(=O)N2CCCC(C(=O)N3CCC(C(N)=O)CC3)C2)cc1Cl (stereo not shown) | 13.2
37 | Cc1cc(C)cc(NC(=O)C2CCCN2C(=O)NC2CCCCC2)c1 (stereo not shown) | 13.9
38 | C=CCNc1nc(C2(C)CC3(CC(C)OC3=O)C(=O)O2)cs1 (stereo not shown) | 6.48
39 | Brc1cc(Br)cc(CN2CCSCC2)c1 | 11.8
40 | CC(Sc1nc(N)cc(=O)[nH]1)C(=O)NC1CCCCC1 (stereo not shown) | 1.47
41 | N#CC1=C(N)C(C#N)(C#N)[C@H](c2ccoc2)[C@H]2CN(Cc3ccccc3)CC=C12 | -3.71
42 | O=C(O)CSc1nccc2ccccc12 | 19.9
43 | COc1ccccc1CN(Cc1nc2ccccc2c(=O)[nH]1)S(=O)(=O)c1ccc(C)cc1 | 6.96
44 | CN(c1ccccc1)S(=O)(=O)c1ccc(C(=O)Nc2nnc(-c3ccco3)o2)cc1 | 9.24

Row | SMILES | hERG current change (%, negative = inhibition) at 1uM [%]
45 | CCOc1ccc(C(=O)OC2CC3CCC(C2)N3C)cc1.Cl (stereo not shown) | -0.916
46 | C=CCNC(=O)Nc1ccc(OCC)cc1 | -1.27
47 | CCN(C(=O)CN1C(=O)c2ccc([N+](=O)[O-])cc2C1=O)C1CCS(=O)(=O)C1 (stereo not shown) | 17.2
48 | O=c1oc2c3c4c(cc2c(C(F)(F)F)c1CCN1CCOCC1)CCCN4CCC3 | 9.79
49 | CC1=CC(C)(C)n2c(O)c(N=NC(N)=S)c3c(C)c(C)cc1c32 | 13.8
50 | O=C(COC(=O)c1cccc(C(=O)OCC(=O)NCc2ccc(F)cc2)n1)NCc1ccc(F)cc1 | 12.6
51 | O=C(CC1NCCc2ccccc21)Nc1ccc(Cl)cc1 (stereo not shown) | 3.57
52 | CCOc1ccc(/C=N/OCC(=O)NC(c2ccccc2)c2ccccc2)cc1 | 10.8
53 | Cc1ccccc1NC(=O)COc1ccc2oc(=O)cc(C)c2c1 | 2.3
54 | Cn1c(=O)[nH]c(=O)c2c1nc(SCCN1CCOCC1)n2Cc1ccccc1 | -12
55 | Cc1cccc(C(CC(=O)O)NC(=O)C(F)(F)F)c1 (stereo not shown) | 11
56 | COc1cccc(N2C(=NC(=O)COc3ccccc3)SC3CS(=O)(=O)CC32)c1 (stereo not shown) | 13.8
57 | COc1ccc(CNC(=O)CCn2c(=O)[nH]c3ccccc3c2=O)cc1 | 11.7
58 | Cc1cc(C)nc(Nc2ccccc2Br)n1 | 21.3
59 | O=C(NNC(=S)Nc1ccccc1Cl)c1ccccc1Cl | 14.7
60 | O=C(CCc1c[nH]c2ccccc12)OCc1cccc([N+](=O)[O-])c1 | 13.2
61 | CC(C)(C)c1cc(N2CCOCC2)n2ncc(-c3ccc(Cl)cc3)c2n1 | 12.9
62 | COc1ccc(-n2c(C)nc3cc(C(=O)N4CCOCC4)ccc32)cc1 | -5.31
63 | Cc1c(O)ccc2c(-c3ccccc3)cc(=O)oc12 | 10.7
64 | O=C(N/N=C/c1ccoc1)c1ccc([N+](=O)[O-])cc1 | 15.4
65 | COc1ccc(C(C)=O)cc1COc1ccc(F)cc1 | 12.5
66 | O=C(CCS(=O)(=O)c1ccc2c(c1)NC(=O)CS2)NCc1ccccc1Cl | 11.3

Row | SMILES | hERG current change (%, negative = inhibition) at 1uM [%]
67 | O=C(CCCn1c(SCC(=O)Nc2ccccc2Cl)nc2ccccc2c1=O)NCC1CCCO1 (stereo not shown) | 14.5
68 | CC(C)CN(C(=O)c1ccc(F)cc1F)c1c(N)n(CC(C)C)c(=O)[nH]c1=O | 4.11
69 | Cn1ccnc1SCC(=O)Nc1ccc2ccccc2c1 | 0.696
70 | CC(C)(C)[C@@H]1CCC(=O)N(CC[C@H](N=[N+]=[N-])c2ccccc2)CC1 | 8.71
71 | Cc1ccc2c(c1)c1nc3ccccc3nc1n2CCN1CCOCC1 | -5.66
72 | c1ccc(-n2cnnc2SCc2cn3cccnc3n2)cc1 | 6
73 | O=C(Cn1c(=O)oc2cc(S(=O)(=O)N3CCCC3)ccc21)Nc1ccc(C(F)(F)F)cc1 | 9.99
74 | CC(=O)NCC(=O)NNC1CC(=O)N(c2cccc(Cl)c2)C1=O (stereo not shown) | 12
75 | Cn1c(=O)n(C)c2cc(/C=N/NC(=O)c3cccc(Br)c3)ccc21 | 14.1
76 | Cc1ccc(-n2nnc(-c3cc4ccccc4nc3Cl)n2)cc1 | 23.6
77 | CCOC(=O)c1cn2nc(OP(=S)(OCC)OCC)cc2nc1C | -6.14
78 | CCCC(=O)Nc1ccc2c(c1)nc(CCNC(=O)c1ccccc1)n2C | 10.2
79 | O=C1OC(c2cccs2)=N/C1=C\c1ccc(-c2cccc(Cl)c2)o1 | 8.62
80 | O=Cc1cc2cc3c(cc2nc1Cl)OCCO3 | 13.7
81 | NC(=O)c1cccn1Cc1cccc(Cl)c1 | -0.43
82 | CCOC(=O)C1CCCN(C2CC(=O)N(c3ccc(C)c(C)c3)C2=O)C1 (stereo not shown) | 6.77
83 | CN(C)[C@@H](CO)c1nnc([C@H](CCC(=O)O)NC(=O)C2CCNCC2)o1.Cl | 19.7
84 | CCC(C)NC(=O)COC(=O)c1cccnc1Nc1ccccc1F (stereo not shown) | 12.5
85 | Cn1c(=O)n(C)c2cc(NC(=O)c3cc4ccccc4o3)ccc21 | 0.707
86 | Cc1ccc(C)c(NC(=S)N/N=C2\CCc3ccccc32)c1 | 8.65
87 | O=C(Nc1cccnc1)c1ccccc1Oc1ccccc1 | 7.62
88 | CCOc1cccc(/C=C/c2ccc3cccc(O)c3n2)c1O | 12
